Measurements: the supplement of paper PMC12217912
The list shows a part of the results. The full chains were built here from the parent and the listed change. Values near 0.05 are background.

B1: TEV protease; numbered along this chain (parent)
chain: MGESLFKGPRDYNPISSSICHLTNESDGHTTSLYGIGFGPFIITNKHLFRRNNGTLVVQSLHGVFKVKDTTTLQQHLVDGRDMIIIRMPKDFPPFPQKLKFREPQREERICLVTTNFQTKSMSSMVSDTSCTFPSGDGIFWKHWIQTKDGQCGSPLVSTRDGFIVGIHSASNFTNTNNYFTSVPKNFMELLTNQEAQQWVSGWRLNADSVLWGGHKVFMVKPEEPFQPVKEATQL

Variants of: B1
Assay: raw area under fraction-flipped curve 0-4 h after induction (AUC4h, not background-subtracted), DNA-recorder readout of cleavage of the substrate (dimensionless); higher = more cleavage of the substrate by the protease variant
Settings: temperature: 34 °C; time window: 0-4 h after rhamnose induction
Description: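 In vivo DNA recorder in E. coli TOP10(DE3) ΔrhaA at 34 °C. Each TEVp single-site mutant (parent TEVp 0) is paired with a single-site variant of the 7-mer TEVs (canonical ENLYFQ|S). The substrate sits between flexible linkers in a Bxb1-sfGFP-TEVs-SsrA fusion, so cleavage stabilises Bxb1 and speeds flipping of a recombination array, read by NGS. The value is the raw area under the fraction-flipped curve over 0-4 h after rhamnose induction (AUC4h), with ≥20 reads per time point. It is not background-subtracted; inactive controls average about 0.047.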
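Further: Bxb1 expression induced with 0.2% (w/v) L-rhamnose at OD600 near 0.5, cultures sampled hourly, flipped fraction per protease–substrate barcode pair counted by paired-end Illumina sequencing.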

Variant | area with substrate ENLYFQA | area with substrate ENLYFQC | area with substrate ENLYFQF | area with substrate ENLYFQG | area with substrate ENLYFQI | area with substrate ENLYFQK | area with substrate ENLYFQL | area with substrate ENLYFQM | area with substrate ENLYFQR | area with substrate ENLYFQS | area with substrate ENLYFQV | area with substrate ENLYFQW | area with substrate ENLYFQY | area with substrate ENLYFQN | area with substrate ENLYFQP | area with substrate ENLYFQT | area with substrate ENLYFQQ | area with substrate ENLYFQE | area with substrate ENLYFQH | area with substrate ENLYFQD
D137C | 0.0987 | 0.099 | 0.0643 | 0.04 | 0.0694 | 0.0758 | 0.0589 | 0.0789 | 0.0485 | 0.0981 | 0.0619 | 0.054 | – | – | – | – | – | – | – | –
F187C | 0.0908 | 0.124 | – | – | – | – | – | 0.0924 | – | 0.101 | – | 0.0537 | 0.0562 | – | – | – | – | – | – | –
K7Q | 0.098 | 0.112 | 0.0762 | 0.0857 | – | – | 0.0653 | 0.104 | 0.0463 | 0.0994 | 0.0707 | 0.0686 | – | 0.0771 | 0.0592 | 0.0676 | – | – | – | –
Q227T | 0.117 | 0.0667 | – | 0.0901 | – | 0.0587 | – | 0.0974 | 0.0635 | 0.104 | – | – | – | 0.0802 | – | 0.0639 | 0.0779 | – | – | –
L156D | 0.0451 | 0.0486 | – | 0.0626 | 0.0413 | 0.0473 | 0.0528 | 0.0502 | – | 0.0548 | 0.0614 | 0.054 | 0.0468 | 0.0558 | – | 0.0428 | 0.0595 | 0.0521 | 0.0508 | –
L156V | 0.109 | 0.117 | – | 0.0733 | – | 0.0687 | 0.0485 | 0.102 | 0.0596 | 0.0992 | 0.0435 | 0.0659 | 0.074 | 0.0633 | – | 0.0472 | 0.0687 | 0.0614 | 0.0757 | –
R81D | 0.0273 | – | 0.0534 | 0.0639 | 0.0646 | 0.0622 | 0.0599 | 0.0612 | 0.0397 | 0.067 | – | 0.053 | 0.0659 | – | – | 0.0482 | 0.0522 | – | – | 0.0647
T176W | 0.062 | – | – | – | 0.0633 | 0.0524 | – | 0.0551 | 0.0543 | 0.0635 | – | 0.073 | 0.0618 | – | – | 0.0515 | – | – | 0.0465 | –
G166N | 0.0419 | 0.049 | – | – | 0.0477 | – | 0.0483 | 0.0532 | 0.0565 | 0.0506 | 0.0537 | 0.0557 | – | – | – | 0.0593 | – | – | 0.0504 | –
F65T | 0.0858 | 0.0744 | 0.0837 | 0.101 | – | 0.0576 | 0.0616 | 0.106 | 0.0647 | 0.104 | – | – | 0.0864 | 0.0937 | – | 0.0507 | – | – | – | 0.0716
S201I | 0.106 | – | – | 0.0857 | – | 0.0595 | 0.0546 | – | – | 0.0945 | 0.0587 | – | 0.0847 | 0.0645 | – | – | – | 0.0919 | 0.0602 | –
G37N | 0.0469 | 0.0743 | – | 0.0731 | 0.0443 | – | – | – | 0.0563 | 0.0688 | 0.0657 | – | 0.0488 | 0.0504 | – | 0.0847 | 0.045 | – | – | 0.0571
M122W | 0.0951 | 0.11 | – | – | – | 0.0466 | 0.0646 | 0.0889 | 0.0533 | 0.106 | 0.0351 | 0.0801 | – | – | – | 0.0693 | 0.075 | – | – | –
F218L | 0.0868 | 0.0914 | – | 0.0819 | 0.0439 | 0.0532 | 0.0578 | 0.0679 | 0.054 | 0.102 | – | 0.0622 | 0.0511 | 0.0723 | – | 0.0636 | 0.0712 | – | – | –
S121D | 0.0704 | 0.115 | 0.095 | 0.0809 | 0.0575 | 0.074 | – | 0.0927 | 0.0684 | 0.102 | 0.0681 | 0.0556 | 0.0614 | 0.0671 | – | 0.0735 | – | – | 0.0584 | –
L22T | 0.0667 | 0.0669 | – | – | 0.0375 | – | 0.0447 | 0.0438 | 0.0452 | 0.0558 | 0.0369 | 0.0486 | 0.0376 | 0.0548 | 0.0584 | 0.0488 | 0.054 | – | 0.0544 | 0.0481
S60Y | 0.0928 | 0.106 | – | – | 0.0684 | 0.0099 | 0.0733 | – | 0.0475 | 0.0984 | 0.119 | 0.0724 | 0.0275 | – | 0.0628 | 0.061 | – | – | – | 0.066
Q234R | 0.0988 | 0.131 | 0.0855 | 0.0626 | – | – | 0.0714 | 0.096 | – | 0.102 | – | – | 0.0738 | 0.076 | 0.0661 | 0.06 | – | – | 0.108 | –
F41L | 0.123 | 0.122 | – | – | – | – | 0.0661 | 0.0734 | 0.0534 | 0.105 | 0.0392 | – | 0.0733 | 0.0743 | – | 0.0814 | 0.0763 | – | 0.0634 | –
N193I | 0.0833 | – | – | – | – | – | – | 0.0784 | – | 0.0867 | – | – | – | 0.0717 | – | – | – | 0.0686 | 0.0731 | 0.0621
S17H | 0.111 | 0.121 | 0.0745 | – | 0.0594 | – | 0.0528 | 0.0769 | 0.0605 | 0.111 | – | 0.0632 | – | 0.0764 | 0.0659 | 0.0665 | 0.075 | 0.0693 | 0.0894 | –
C20G | 0.0615 | 0.0665 | – | – | – | – | – | – | – | 0.0652 | – | 0.0404 | – | – | – | – | – | 0.0525 | 0.0677 | –
C20V | 0.0852 | 0.128 | 0.0664 | 0.118 | 0.0645 | 0.0802 | 0.0694 | 0.086 | 0.0607 | 0.111 | 0.0521 | 0.0646 | 0.0661 | 0.0791 | 0.0482 | 0.0695 | – | – | 0.0944 | 0.0797
S26G | 0.0952 | 0.147 | – | 0.0938 | – | – | – | – | – | 0.0945 | 0.0522 | 0.0605 | 0.0956 | – | – | – | – | – | – | 0.0853
R106W | 0.0797 | 0.105 | 0.0796 | 0.102 | 0.0629 | 0.066 | 0.0658 | 0.0784 | 0.0661 | 0.1 | 0.0604 | 0.0651 | 0.0828 | 0.0854 | 0.0538 | 0.0706 | 0.0649 | – | 0.0932 | 0.0808
T114Q | 0.143 | 0.105 | – | 0.113 | 0.0577 | 0.064 | 0.0727 | 0.0994 | 0.0519 | 0.11 | 0.0584 | – | 0.0709 | 0.0758 | – | 0.075 | 0.0745 | – | – | –
E108I | 0.0582 | 0.0577 | – | 0.0675 | 0.0501 | 0.0552 | 0.0586 | 0.0642 | 0.0401 | 0.0632 | – | 0.0652 | – | 0.0502 | 0.0478 | 0.0624 | 0.0558 | – | 0.0585 | 0.0548
G28A | 0.0837 | 0.103 | – | 0.0993 | 0.054 | – | – | 0.0727 | 0.059 | 0.0957 | 0.0716 | 0.0599 | 0.0614 | 0.0723 | – | 0.0613 | – | – | 0.0808 | 0.0773
